Results as given in PubChem BioAssay AID2202238 (Ras Initiative Chemistry Research Team, Frederick National …, 2025).
The other results are listed elsewhere or left out. Shown are side measurements of this screen, not its main read-out; they come without a call.

Target: GTPase KRas (Homo sapiens) (UniProt P01116)
Experiment: Fragment capture on engineered cysteines, share of protein labelled (AID 2202238)
Parameters: protein at 5 µM with 500 µM competing thiol for 1.5 h
Details: KRAS G12D cysteine mutants, disulfide tethering, MALDI-TOF labeling, stronger effect = higher value, fragment at 500 µM
[1] = measured here: G60C mutant labeling
[2] = measured here: G75C mutant labeling
[3] = measured here: H94C mutant labeling
[4] = measured here: I36C mutant labeling
[5] = measured here: L120C mutant labeling
[6] = measured here: M67C mutant labeling
[7] = measured here: M72C mutant labeling
[8] = measured here: N26C mutant labeling
[9] = measured here: N86C mutant labeling
[10] = measured here: P121C mutant labeling
[11] = measured here: S122C mutant labeling
[12] = measured here: S136C mutant labeling

Sequence of UniProt P01116 (P01116 whole entry, looked up, the tested form may be a part): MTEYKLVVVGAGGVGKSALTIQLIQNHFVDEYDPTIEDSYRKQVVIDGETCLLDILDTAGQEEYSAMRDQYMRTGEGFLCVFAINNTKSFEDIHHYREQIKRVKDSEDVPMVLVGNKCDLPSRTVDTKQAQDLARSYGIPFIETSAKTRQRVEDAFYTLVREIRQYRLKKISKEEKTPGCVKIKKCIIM

## O=C(NCCS)C1COc2cc(F)ccc2C1 (stereo unspecified)
[1]
  percent labeling: 33.8%
[2]
  percent labeling: 9.8%
[3]
  percent labeling: 16.5%
[4]
  percent labeling: 22.3%
[5]
  percent labeling: 20.8%
[6]
  percent labeling: 15.7%
[7]
  percent labeling: 27%
[8]
  percent labeling: 32.6%
[9]
  percent labeling: 10%
[10]
  percent labeling: 14.9%
[11]
  percent labeling: 13.9%
[12]
  percent labeling: 26.7%

## CC(C(=O)NCCS)c1cn(C)c2ccccc12 (stereo unspecified)
[1]
  percent labeling: 54.8%
[2]
  percent labeling: 25.3%
[3]
  percent labeling: 31.8%
[4]
  percent labeling: 24.7%
[5]
  percent labeling: 35.6%
[6]
  percent labeling: 24.7%
[7]
  percent labeling: 40.7%
[8]
  percent labeling: 34.6%
[9]
  percent labeling: 27.9%
[10]
  percent labeling: 22%
[11]
  percent labeling: 20%
[12]
  percent labeling: 41%

## O=C(CCS)N(Cc1ccco1)c1ccccc1
[2]
  percent labeling: 19.4%
[3]
  percent labeling: 30.6%
[4]
  percent labeling: 24%
[5]
  percent labeling: 19.2%
[6]
  percent labeling: 28.9%
[7]
  percent labeling: 33.4%
[9]
  percent labeling: 14.3%
[10]
  percent labeling: 27.9%
[11]
  percent labeling: 26.1%
[12]
  percent labeling: 45.7%

## O=C(CCS)N1CCC(Oc2ccccn2)CC1
[2]
  percent labeling: 19.5%
[3]
  percent labeling: 33%
[4]
  percent labeling: 39.2%
[5]
  percent labeling: 35.2%
[6]
  percent labeling: 66.5%
[7]
  percent labeling: 29%
[9]
  percent labeling: 28%
[10]
  percent labeling: 39.5%
[11]
  percent labeling: 39.6%
[12]
  percent labeling: 61.6%

## O=C(CCS)NCc1cnc2ccc(Br)cn12
[2]
  percent labeling: 18.8%
[3]
  percent labeling: 34.4%
[4]
  percent labeling: 49.4%
[5]
  percent labeling: 23.6%
[6]
  percent labeling: 45.3%
[7]
  percent labeling: 28.2%
[9]
  percent labeling: 21.4%
[10]
  percent labeling: 34.2%
[11]
  percent labeling: 27.7%
[12]
  percent labeling: 46.7%

## COc1ccc(C2(NC(=O)CCS)CCC2)cn1
[2]
  percent labeling: 11.1%
[3]
  percent labeling: 26.7%
[4]
  percent labeling: 38.3%
[5]
  percent labeling: 25.2%
[6]
  percent labeling: 36.1%
[7]
  percent labeling: 24.6%
[9]
  percent labeling: 19.2%
[10]
  percent labeling: 32.5%
[11]
  percent labeling: 33.5%
[12]
  percent labeling: 47%

## Cc1nn(-c2ccc(Cl)cc2)c(C)c1CC(=O)NCCS
[1]
  percent labeling: 44%
[2]
  percent labeling: 22.7%
[3]
  percent labeling: 31.3%
[4]
  percent labeling: 23.2%
[5]
  percent labeling: 22.1%
[6]
  percent labeling: 26.1%
[7]
  percent labeling: 33.9%
[8]
  percent labeling: 40%
[9]
  percent labeling: 17.2%
[10]
  percent labeling: 19.7%
[11]
  percent labeling: 14.8%
[12]
  percent labeling: 27.8%

## O=C(CCS)NCCc1csc(-c2ccc(Cl)cc2)n1
[2]
  percent labeling: 14.2%
[3]
  percent labeling: 42.2%
[4]
  percent labeling: 24.4%
[5]
  percent labeling: 15.9%
[6]
  percent labeling: 22%
[7]
  percent labeling: 38.8%
[9]
  percent labeling: 21.5%
[10]
  percent labeling: 16.4%
[11]
  percent labeling: 10.4%
[12]
  percent labeling: 30.2%

## O=C(CCS)N1CCN(CCn2cccn2)CC1
[2]
  percent labeling: 7.2%
[3]
  percent labeling: 23.7%
[4]
  percent labeling: 31.9%
[5]
  percent labeling: 21.7%
[6]
  percent labeling: 32.3%
[7]
  percent labeling: 10.8%
[9]
  percent labeling: 21.6%
[10]
  percent labeling: 30.3%
[11]
  percent labeling: 27.9%
[12]
  percent labeling: 49.6%

## O=C(CC[C@@H]1CC[C@H](C(F)(F)F)O1)NCCS
[1]
  percent labeling: 21.6%
[2]
  percent labeling: 11%
[3]
  percent labeling: 26.1%
[4]
  percent labeling: 18.7%
[5]
  percent labeling: 39.9%
[6]
  percent labeling: 23.2%
[7]
  percent labeling: 15.8%
[8]
  percent labeling: 30.7%
[9]
  percent labeling: 22%
[10]
  percent labeling: 30%
[11]
  percent labeling: 29.5%
[12]
  percent labeling: 38.2%

## CC(C(=O)NCCS)n1ccc(C(F)(F)F)n1 (stereo unspecified)
[1]
  percent labeling: 34.5%
[2]
  percent labeling: 15.2%
[3]
  percent labeling: 33.7%
[4]
  percent labeling: 26.9%
[5]
  percent labeling: 48.9%
[6]
  percent labeling: 28%
[7]
  percent labeling: 23.8%
[8]
  percent labeling: 36.3%
[9]
  percent labeling: 34.3%
[10]
  percent labeling: 29.5%
[11]
  percent labeling: 30.2%
[12]
  percent labeling: 38.9%

## CN(C(=O)c1ccc(C(=O)NCCS)cc1)c1ccccc1
[1]
  percent labeling: 40.1%
[2]
  percent labeling: 20.2%
[3]
  percent labeling: 26%
[4]
  percent labeling: 18.2%
[5]
  percent labeling: 30.6%
[6]
  percent labeling: 29.8%
[7]
  percent labeling: 34.5%
[8]
  percent labeling: 33.7%
[9]
  percent labeling: 20.5%
[10]
  percent labeling: 21.2%
[11]
  percent labeling: 19%
[12]
  percent labeling: 51.7%

## O=C(NCCS)C1(n2cnnn2)CCCCC1
[1]
  percent labeling: 35.5%
[2]
  percent labeling: 17.1%
[3]
  percent labeling: 28.6%
[4]
  percent labeling: 24.6%
[5]
  percent labeling: 31.8%
[6]
  percent labeling: 27.5%
[7]
  percent labeling: 33.7%
[8]
  percent labeling: 36.3%
[9]
  percent labeling: 35.4%
[10]
  percent labeling: 31.1%
[11]
  percent labeling: 29.7%
[12]
  percent labeling: 41%

## COc1ccc(C)c2[nH]c(C(=O)NCCS)cc12
[1]
  percent labeling: 16.2%
[2]
  percent labeling: 15.3%
[3]
  percent labeling: 8.2%
[4]
  percent labeling: 8%
[5]
  percent labeling: 13.2%
[6]
  percent labeling: 9.5%
[7]
  percent labeling: 31%
[8]
  percent labeling: 29.6%
[9]
  percent labeling: 10.7%
[10]
  percent labeling: 8.9%
[11]
  percent labeling: 8.2%
[12]
  percent labeling: 15.4%

## Cn1ccc(N(Cc2ccccc2)C(=O)CCS)n1
[2]
  percent labeling: 18.7%
[3]
  percent labeling: 44.7%
[4]
  percent labeling: 38%
[5]
  percent labeling: 27.6%
[6]
  percent labeling: 40.1%
[7]
  percent labeling: 51.4%
[9]
  percent labeling: 24.4%
[10]
  percent labeling: 29.8%
[11]
  percent labeling: 34%
[12]
  percent labeling: 62.4%

## Cn1c(CNC(=O)CCS)cc(=O)n(C)c1=O
[2]
  percent labeling: 7.9%
[3]
  percent labeling: 22.1%
[4]
  percent labeling: 35.4%
[5]
  percent labeling: 27%
[6]
  percent labeling: 37.4%
[7]
  percent labeling: 9.8%
[9]
  percent labeling: 22.6%
[10]
  percent labeling: 28%
[11]
  percent labeling: 31.6%
[12]
  percent labeling: 41.5%

## O=C(NCCS)c1cccn1-c1ccc2c(c1)OCCO2
[1]
  percent labeling: 44.5%
[2]
  percent labeling: 11%
[3]
  percent labeling: 28.5%
[4]
  percent labeling: 20.1%
[5]
  percent labeling: 19.3%
[6]
  percent labeling: 19.9%
[7]
  percent labeling: 38%
[8]
  percent labeling: 31%
[9]
  percent labeling: 12.3%
[10]
  percent labeling: 15.2%
[11]
  percent labeling: 14.7%
[12]
  percent labeling: 25.4%

## Cc1nn(C)c(N(C)C)c1CNC(=O)CCS
[2]
  percent labeling: 11%
[3]
  percent labeling: 29.6%
[4]
  percent labeling: 34.3%
[5]
  percent labeling: 25.7%
[6]
  percent labeling: 31.7%
[7]
  percent labeling: 19.1%
[9]
  percent labeling: 16.4%
[10]
  percent labeling: 30.3%
[11]
  percent labeling: 32.4%
[12]
  percent labeling: 49.2%

## O=C(Cn1nc2n(c1=O)CCCCC2)NCCS
[1]
  percent labeling: 22%
[2]
  percent labeling: 9.7%
[3]
  percent labeling: 26.2%
[4]
  percent labeling: 26.7%
[5]
  percent labeling: 42.4%
[6]
  percent labeling: 28.1%
[7]
  percent labeling: 19.1%
[8]
  percent labeling: 30.4%
[9]
  percent labeling: 21.7%
[10]
  percent labeling: 31.3%
[11]
  percent labeling: 33.5%
[12]
  percent labeling: 38.4%

## COc1cc(C(=O)NCCS)cc(OC)c1O
[1]
  percent labeling: 29.1%
[2]
  percent labeling: 15.9%
[3]
  percent labeling: 32.3%
[4]
  percent labeling: 21.7%
[5]
  percent labeling: 35.4%
[6]
  percent labeling: 28.9%
[7]
  percent labeling: 37.5%
[8]
  percent labeling: 51.6%
[9]
  percent labeling: 22.9%
[10]
  percent labeling: 27.2%
[11]
  percent labeling: 32.5%
[12]
  percent labeling: 66%

## Cc1cc(C(=O)NCCS)nn1-c1ccccc1F
[1]
  percent labeling: 28%
[2]
  percent labeling: 12.8%
[3]
  percent labeling: 20%
[4]
  percent labeling: 16.3%
[5]
  percent labeling: 31.2%
[6]
  percent labeling: 15%
[7]
  percent labeling: 34.8%
[8]
  percent labeling: 31.7%
[9]
  percent labeling: 16.9%
[10]
  percent labeling: 19.4%
[11]
  percent labeling: 18.1%
[12]
  percent labeling: 50%

## O=C(Nc1ccccc1C(=O)NCCS)c1ccccc1
[1]
  percent labeling: 20.7%
[2]
  percent labeling: 9.6%
[3]
  percent labeling: 15.9%
[4]
  percent labeling: 9.6%
[5]
  percent labeling: 17.7%
[6]
  percent labeling: 9.1%
[7]
  percent labeling: 24.8%
[8]
  percent labeling: 25.5%
[9]
  percent labeling: 11.3%
[10]
  percent labeling: 13.5%
[11]
  percent labeling: 7.4%
[12]
  percent labeling: 12%

## CC1(Cc2cc(Cl)cs2)CCCN1C(=O)CCS (stereo unspecified)
[2]
  percent labeling: 26.9%
[3]
  percent labeling: 31.6%
[4]
  percent labeling: 32.8%
[5]
  percent labeling: 29%
[6]
  percent labeling: 32.5%
[7]
  percent labeling: 55.2%
[9]
  percent labeling: 31%
[10]
  percent labeling: 23.9%
[11]
  percent labeling: 18.7%
[12]
  percent labeling: 46.5%
